This note sets out measurements from article PMC12032302, “A20 attenuates oxidized self-DNA-mediated inflammation in acute kidney injury” (Signal Transduction and Targeted Therapy, 2025).

The chains behind the UniProt entries cited, without tags or fusion partners. Where a name states a change or a piece, a line headed by the entry shows the natural chain unless it says otherwise.
UniProt Q9ES74: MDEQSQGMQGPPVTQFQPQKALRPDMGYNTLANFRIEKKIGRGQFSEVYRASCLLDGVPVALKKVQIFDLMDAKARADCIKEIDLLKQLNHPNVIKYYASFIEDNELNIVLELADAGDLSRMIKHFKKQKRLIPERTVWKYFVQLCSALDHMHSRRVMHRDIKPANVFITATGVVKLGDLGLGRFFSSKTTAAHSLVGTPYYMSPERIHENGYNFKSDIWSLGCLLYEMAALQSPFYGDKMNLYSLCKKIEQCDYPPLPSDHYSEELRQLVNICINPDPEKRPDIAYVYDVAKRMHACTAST

Test [1] deals with T1, biotin-labeled P-II.
T1 sequence (peptide, biotin (position not stated)): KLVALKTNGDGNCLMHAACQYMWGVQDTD
The test is described as follows: pull-down; lysate of HEK293T transfected with HA-NEK7 plasmids incubated with biotin-conjugated peptide overnight at 4 °C; streptavidin magnetic beads; immunoblot for HA-NEK7; only the target purified.

Test [2] concerns the target T2, A20-derived peptide P-II.
T2 sequence (peptide): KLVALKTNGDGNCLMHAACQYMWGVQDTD
The experiment in a line: BLI; 3×HA-NEK7 (WT or Tri-MUT) purified from HEK293T with HA antibody; legend: P-II diluted into the indicated concentrations; methods: peptide immobilised on AR2G biosensors; 1:1 binding model; both purified.

Results are given in words; binding and its absence hold for the method and conditions named. For some assays here: In cells and extracts the contact can be indirect. Some results given as binding are weak or reduced against the parent protein; the word gives no strength.

For the substance “HA-NEK7 (mouse NIMA-related kinase 7, wild type) (from UniProt Q9ES74 1-302)”, the binding result in test [1] is listed as “binds”. With “HA-Tri-MUT-NEK7 (mouse NEK7 K130A, L132R, K140A) (from UniProt Q9ES74 1-302)”, in test [2], the binding entry was “no binding”.
